± gives the uncertainty stated by the source. This continues a long series; more values of the same kind are listed elsewhere.
Experiment: xn = mol fraction of the nth substance listed
Conditions: 101 kPa

CCCCCC[n+]1ccn(C)c1.F[B-](F)(F)F + CC(C)O + CCCO
viscosity [mPa·s]
Conditions | 313.15 K | 323.15 K | 333.15 K
x2 = 0.0547, x3 = 0.092 | 58.44 ± 0.54 | 39.18 ± 0.38 | 27.53 ± 0.27
x2 = 0.0978, x3 = 0.4041 | – | 11.32 ± 0.09 | 8.66 ± 0.07
x2 = 0.1003, x3 = 0.7991 | – | 1.64 ± 0.01 | 1.19 ± 0.01
x2 = 0.1006, x3 = 0.6013 | – | 5.04 ± 0.03 | 3.87 ± 0.03
x2 = 0.1012, x3 = 0.4996 | – | 7.56 ± 0.05 | 5.83 ± 0.04
x2 = 0.1014, x3 = 0.7009 | – | 3.08 ± 0.02 | 2.3 ± 0.02
x2 = 0.1116, x3 = 0.2875 | – | 16.41 ± 0.13 | 12.5 ± 0.1
x2 = 0.1293, x3 = 0.1504 | 35.73 ± 0.31 | 25.01 ± 0.22 | 18.36 ± 0.16
x2 = 0.1973, x3 = 0.1121 | – | 22.81 ± 0.2 | 16.82 ± 0.15
x2 = 0.1985, x3 = 0.4006 | – | 7.66 ± 0.05 | 5.89 ± 0.04
x2 = 0.1992, x3 = 0.3012 | – | 11.38 ± 0.09 | 8.77 ± 0.07
x2 = 0.2003, x3 = 0.2005 | – | 16.3 ± 0.13 | 12.28 ± 0.1
x2 = 0.2003, x3 = 0.4992 | – | 5.08 ± 0.04 | 3.89 ± 0.03
x2 = 0.2012, x3 = 0.6984 | – | 1.64 ± 0.01 | 1.15 ± 0.01
x2 = 0.2977, x3 = 0.1042 | – | 16.39 ± 0.14 | 12.37 ± 0.1
x2 = 0.2999, x3 = 0.4989 | – | 3.2 ± 0.02 | 2.36 ± 0.02
x2 = 0.3037, x3 = 0.4006 | – | 5.02 ± 0.04 | 3.84 ± 0.03
x2 = 0.3046, x3 = 0.5961 | – | 1.65 ± 0.02 | 1.11 ± 0.01
x2 = 0.3058, x3 = 0.3005 | – | 7.61 ± 0.06 | 5.87 ± 0.04
x2 = 0.3977, x3 = 0.2999 | – | 5.19 ± 0.04 | 3.98 ± 0.03
x2 = 0.3985, x3 = 0.104 | – | 11.2 ± 0.09 | 8.61 ± 0.07
x2 = 0.3987, x3 = 0.3005 | – | 5.14 ± 0.04 | 3.93 ± 0.03
x2 = 0.3989, x3 = 0.3998 | – | 3.19 ± 0.02 | 2.35 ± 0.02
x2 = 0.3989, x3 = 0.5015 | – | 1.64 ± 0.02 | 1.1 ± 0.01
x2 = 0.4002, x3 = 0.1968 | – | 7.81 ± 0.06 | 6.01 ± 0.05
x2 = 0.4992, x3 = 0.4006 | – | 1.67 ± 0.02 | 1.1 ± 0.01
x2 = 0.5004, x3 = 0.0998 | – | 7.76 ± 0.06 | 6 ± 0.05
x2 = 0.5013, x3 = 0.3019 | – | 3.11 ± 0.02 | 2.29 ± 0.02
x2 = 0.5734, x3 = 0.2335 | – | 3.06 ± 0.02 | 2.24 ± 0.02
x2 = 0.6, x3 = 0.0992 | – | 5.15 ± 0.04 | 3.94 ± 0.03
x2 = 0.6001, x3 = 0.3004 | – | 1.65 ± 0.02 | 1.1 ± 0.01
x2 = 0.6942, x3 = 0.1049 | – | 3.11 ± 0.02 | 2.32 ± 0.02
x2 = 0.698, x3 = 0.2007 | – | 1.67 ± 0.02 | 1.1 ± 0.01
x2 = 0.7991, x3 = 0.101 | – | 1.62 ± 0.02 | 1.06 ± 0.01

Reference: the CheMixHub ionic liquid set
